Source: the supplement of paper PMC10338343
± gives the standard deviation. This is a selection; strong and weak results do not stand in their true shares.

test system: MIWI (PIWIL1) piRISC loaded with piRNA #1 (30 nt); assay: pre-steady-state target cleavage rate (min^-1); MIWI and MILI are mouse PIWI proteins and EfPiwi is from a freshwater sponge; tags in brackets are library labels; higher = faster piRNA-guided slicing of the target; settings: guide: piRNA #1 5'p-UGAGGUAGUAGGUUGUAUAGUAUCCAGAGG; auxiliary factor: 500 nM mouse GTSF1
Method in brief: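 The pre-steady-state cleavage rate came from a burst-and-steady-state fit to pooled data from three Cleave-'n-Seq trials, in which uncleaved targets were sequenced and normalised to depth and to weakly complementary targets. Each reaction held 0.1 nM transcribed, DNA-blocked target RNA library and 1 nM active affinity-purified piRISC carrying one synthetic guide, with or without 500 nM GTSF1 partner protein, in HEPES–potassium acetate buffer at 33 °C for 0–8 or 0–960 min. k3 was capped at 0.0001 min^-1.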

Sequence | pre-steady-state target cleavage rate
GGAGAGGAUACUAUACAACCUACUACCGUCA | 0.0741 ± 0.011
GGACUGGAUAGAAUACAACCUACUACCUCA | 0.508 ± 0.072
GGAGACCAAACUAUACAACCUUCUACCUCA | 0.212 ± 0.027
GGAGACCUUACUAUCCAACCUACUACCUCA | 1.44 ± 0.086
GGAGUGGAUACUAUACAACCCACUACCUCA | 0.505 ± 0.029
GGUCUGGAUACUAUACAACCUACUAUCCUCA | 0.489 ± 0.043
GGAGACCUAUGAUAUGUACCUACUACUUCA | < 0.0001
GGUCUGGAUACUAUAGAACGUACUACCUCA | 0.0939 ± 0.018
GGUCUCGAUUCUAUACAACCUACUACCUCA | 1.74 ± 0.1
GGAGACGAUACUAUACAUGGUACUACCUCA | 0.0284 ± 0.0053
GCUCUGGAUACUAUACAACCAACUUCCUCA | 0.04 ± 0.007
GGAGACGAUACUAUACAUCCUACUACCACA | 1.4 ± 0.076
GGAGACCUAUGAUUACAACCUACUCCUCA | < 0.0001
CGUCUGGAUACUAUACAUCCUACUACCUCA | 1.8 ± 0.098
GGAGACCUAACUAUACAACCUACAUACCUCA | 0.315 ± 0.034
GGAGACCAUACUAUACAACCUACUAGGACA | 0.00558 ± 0.0042
CCUCUGGAUACUAUACAACGUUCUACCUCA | 0.156 ± 0.016
GGACUGGAAACUAUACAACCUACUACCACA | 0.408 ± 0.044
GGAGACGAUACUAUAGAUCCUACUACCUCA | 0.901 ± 0.049
GGUCUCGAUACUAUACUACCUACUACCUCA | 1.51 ± 0.11

Sequence | pre-steady-state target cleavage rate
GGAGACCAUACUAAACAACCAACUACCUCA | 0.0501 ± 0.0091
CCACUGGAUACUAUACAACCUACUUCCUCA | 0.689 ± 0.047
GGAGACCUUACUAAUACAACCUACUACCUCA | 0.672 ± 0.06
GGAGACCUAACUAUAGAACCUACAACCUCA | 0.00664 ± 0.0031
GGAGAGGAUAUUAUACAACCUACUACCUCA | 1.12 ± 0.062
GGUGUGGAUACAAUACAACCUACUACCUCA | 1.71 ± 0.13
GGAGUGGAUAGUAUACAACCUACUACGUCA | 0.227 ± 0.028
GGAGACGAUACUAUACAAGCUAGUACCUCA | 0.368 ± 0.044
GGAGAGGAUACAAUACAACCUACUACGUCA | 0.391 ± 0.03
GGAGAGGAUACUAUACAAGCUUCUACCUCA | 0.118 ± 0.012
GGAGACCUAUGUAUACAACCUACUACCUA | 0.0953 ± 0.013
CCUCAGGAUACUAUACAACCUUCUACCUCA | 0.767 ± 0.04
GGAGACGAUACUAUACAACCUACUACCUUCA | 1.49 ± 0.094
GGACUGGAUUCUAUUCAACCUACUACCUCA | 1.4 ± 0.12
GGAGACCUAACUAUACAACCUACUACCUGCA | 0.731 ± 0.072
GGAGACCAUACUAAACAACCUUCUACCUCA | 0.364 ± 0.034
GGAGAGGAUACUAUACAACCUACAACCUGA | 0.00836 ± 0.0037
GGACUGGAUACUAAACAAGCUACUACCUCA | 1.06 ± 0.072
GGAGACCUAUCUAUAGAACCUUCUACCUCA | 0.0608 ± 0.0097
GGAGACGAUUCUAUAGAACCUACUACCUCA | 1.37 ± 0.091
